Results on 91 compounds are retold here after PubChem BioAssay AID360 (National Center for Advancing Translational Sciences (NCATS), 2006).

The whole screen tested about 48,000 compounds, of which about 550 (1.1%) were called active. Another 4% or so got no clear call; they are omitted. No stated cut-off is given here; in the data, active means potency below about 15 µM; inconclusive means mostly about 16 µM to 33 µM; inactive means weaker than that. This is one part of the list. A value given as a limit tells only on which side of the number the result lay.
Potency means the concentration at half of the fitted maximal effect.

In this assay the target is Lysosomal acid glucosylceramidase (Homo sapiens) (UniProt P04062). In words: Glucocerebrosidase.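 Further: the screen sought inhibitors.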 The following applies: purified enzyme, resorufin glucoside fluorescence (screen aimed at inhibitors), 20 min. The essentials: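 Wild-type enzyme at 0.2 nM final in 50mM citric acid/KH2PO4, 10mM sodium taurocholate, 0.01% tween-20, pH 5.9, with resorufin beta-D-glucopyranoside at 30 uM final. Compounds titrated, 20 min at RT, red fluorescence read; AC50 from titration.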
UniProt P04062, sequence (P04062 whole entry, looked up): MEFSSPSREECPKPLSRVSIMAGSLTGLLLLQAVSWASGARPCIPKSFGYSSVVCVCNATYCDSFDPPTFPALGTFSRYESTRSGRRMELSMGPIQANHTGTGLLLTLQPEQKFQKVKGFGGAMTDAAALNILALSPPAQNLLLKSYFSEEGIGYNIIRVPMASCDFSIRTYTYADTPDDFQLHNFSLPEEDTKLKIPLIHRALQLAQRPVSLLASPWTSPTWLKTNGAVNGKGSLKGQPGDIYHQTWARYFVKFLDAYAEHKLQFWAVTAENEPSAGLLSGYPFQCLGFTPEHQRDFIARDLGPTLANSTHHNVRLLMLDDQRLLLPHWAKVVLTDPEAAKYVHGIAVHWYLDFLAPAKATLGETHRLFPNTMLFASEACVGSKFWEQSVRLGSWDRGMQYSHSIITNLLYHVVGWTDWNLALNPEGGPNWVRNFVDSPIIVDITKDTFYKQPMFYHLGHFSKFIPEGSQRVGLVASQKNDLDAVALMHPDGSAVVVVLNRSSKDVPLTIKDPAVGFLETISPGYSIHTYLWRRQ
For `CCN(Cc1cc2ccccc2[nH]c1=O)S(=O)(=O)c1ccccc1`, the Potency was inactive: > 76.9 µM.
Then `CC(C)C(c1nnnn1CC1CCCO1)N1CCN(Cc2ccc3c(c2)OCO3)CC1` (stereo unspecified), with inactive: > 76.9 µM; and `Cc1ccc(N2CCN(CCc3nc4cc(NS(C)(=O)=O)ccc4n3C)CC2)cc1`, with inactive: > 76.9 µM; and `COc1ccc(CCNC(=O)CCSc2nc(-c3ccco3)cc(C(F)(F)F)n2)cc1OC`, with inactive: > 76.9 µM.
With `Cc1ccc(NC(=O)CS(=O)CC(=O)NCC2CCCO2)cc1` (stereo unspecified), the Potency is inactive: > 76.9 µM.
On to `CCc1ccc2c(CN3CCN(S(=O)(=O)c4ccc5c(c4)OCCO5)CC3)cc(=O)oc2c1`, for which the Potency is inactive: > 76.9 µM.
Then `CCOC(=O)c1ccc(NC(=O)CN2CCN(CCN=CC3=C(O)CC(C)(C)CC3=O)CC2)cc1`, with inactive: > 76.9 µM; and `O=C(CCn1c(=O)oc2ccccc21)NC1=NCCS1`, with inactive: > 76.9 µM.
Then `Cn1c(=O)cc(SCC(=O)NCC2COc3ccccc3O2)c2ccccc21` (stereo unspecified), with inactive: > 76.9 µM; and `Cc1cccc(-n2c(SCC(N)=O)nnc2-c2ccccn2)c1C`, with inactive: > 76.9 µM.
As to `CCn1c(=N)c(C(N)=O)cc2c(=O)n3cccc(C)c3nc21`, the Potency was inactive: > 76.9 µM.
Take `c1ccc(COc2ccc(OCCCn3cncn3)cc2)cc1`: the Potency is inactive: > 76.9 µM.
For the compound `CCCN=C(N)/C(C(=O)OCC)=C(\O)c1ccc(OC)cc1`, the Potency was inactive: > 76.9 µM.
The value for `COc1ccc(-c2noc(-c3ccc(Br)o3)n2)cc1OC` was inactive: > 76.9 µM; that for `CCCCN(C(=O)c1cc(OC)c(OC)c(OC)c1)C1=CC2CCC(C1)N2C` (stereo unspecified) was inactive: > 76.9 µM; that for `Cc1onc(-c2ccccc2)c1C(=O)Nc1nnc(-c2ccncc2)s1` was inactive: > 76.9 µM.
Regarding `CN1CCN(C2=C(Cl)C(=O)N(Cc3ccccc3)C2=O)CC1`, the Potency is inactive: > 76.9 µM.
Then `Nc1c(C(=O)NCc2ccco2)sc2nc3c(cc12)C(=O)CCC3`, with inactive: > 76.9 µM; and `Cc1ccc(C)c(NS(=O)(=O)c2c(C)nn(C)c2C)c1`, with inactive: > 76.9 µM; and `COc1ccccc1OCC(=O)NCc1cccs1`, with inactive: > 76.9 µM.
Then `COc1cccc(NC(=O)CNC(=O)c2ccccc2)c1`, with inactive: > 76.9 µM.
For `COc1ccc(S(=O)(=O)N2CCCCC2C(=O)O)cc1OC` (stereo unspecified), the Potency was inactive: > 76.9 µM.
The value for `CCn1nnnc1SCC(=O)Nc1cccc(NC(C)=O)c1` was inactive: > 76.9 µM; that for `Cc1ccc(Cn2c(N3CCCCCC3)nc3c2c(=O)[nH]c(=O)n3C)cc1` was inactive: > 76.9 µM; that for `CCc1ccccc1NC(=O)CSc1nc2c(c(-c3ccco3)c1C#N)CCCC2` was inactive: > 76.9 µM.
The value for `CCCN1C(=O)C(NC(C)=O)c2cc(OC)ccc21` (stereo unspecified) was inactive: > 76.9 µM; that for `Cc1cccc(CCNC(=O)C2CCN(S(=O)(=O)c3c(C)nn(C)c3C)CC2)c1` was inactive: > 76.9 µM; that for `COc1cccc(CN(C)C(=O)c2ccc(S(=O)(=O)N3CCCC3)cc2)c1OC` was inactive: > 76.9 µM.
Turning to `FC(F)Oc1ccccc1C1CC(c2ccc(Br)s2)Nc2ncnn21` (stereo unspecified), the Potency was inactive: > 76.9 µM.
In the case of `COc1cc(CN2CCC(C(=O)NC3CCCC3)CC2)ccc1O`, the Potency was inactive: > 76.9 µM.
For `COc1ccc(/C(O)=C2/C(=O)C(=O)N(Cc3cccnc3)C2c2ccncc2)cc1F` (stereo unspecified), the Potency was inactive: > 76.9 µM.
Then `Cc1cc(Nc2ccccc2)n(CCOC(=O)COc2ccccc2)n1`, with inactive: > 76.9 µM; and `COc1cccc(-c2cc(C(F)(F)F)nc(-n3cncn3)n2)c1`, with inactive: > 76.9 µM.
In the case of `CCOc1ccc(N(CC(=O)NC2CCCC2)C(=O)CCC(=O)Nc2ccccn2)cc1`, the Potency is inactive: > 76.9 µM.
Then `O=C1c2ccccc2-c2c1nc1c([n+]2[O-])CCCC1`, with inactive: > 76.9 µM; and `COc1ccc(/C=N/n2c(N)nc3ccccc32)cc1OC`, with inactive: > 76.9 µM; and `CN(CCC#N)C(=O)CSc1ncnc2sc(-c3ccccc3)cc12`, with inactive: > 76.9 µM.
In the case of `Cc1[nH]c2c(C)cccc2c(=O)c1Br`, the Potency was inactive: > 76.9 µM.
For `CN=Cc1sc2ccccc2c1O`, the Potency was inactive: > 76.9 µM.
In the case of `Cc1ccc(-n2c(Cc3cccs3)nnc2SCC(=O)Nc2ccc(S(N)(=O)=O)cc2)cc1`, the Potency entry is “inactive”.
For `CC(C)NC(=O)c1ccc(-c2ccccc2C(F)(F)F)o1`, the Potency is inactive: > 76.9 µM.
The value for `COc1cccc(C(=O)Nc2ccc(S(=O)(=O)NCc3ccco3)cc2)c1` was inactive: > 76.9 µM.
`CC(C)(C)NC(=O)C1N(c2cccnc2)C(=O)C2C(C(=O)Nc3ccccc3)C3(C)C=CC21O3` (stereo unspecified): the Potency is inactive: > 76.9 µM.
The value for `CN(C)S(=O)(=O)c1ccc(C(=O)OCC(=O)c2ccc(OC(F)F)cc2OC(F)F)cc1` was inactive: > 76.9 µM.
Consider `COc1ccc(-c2nc3n(c(=O)c2C#N)CCCS3)cc1`, for which the Potency was inactive: > 76.9 µM.
On to `O=C1CN(C(=O)c2cccs2)c2ccccc2N1`, for which the Potency was inactive: > 76.9 µM.
`CC(=O)Nc1cc2c(=O)n(Cc3ccccc3)c(C)nc2cc1N1CCOCC1`: the Potency was inactive: > 76.9 µM.
The value for `Cc1cccc(-n2c(SCC(=O)NCc3ccco3)nnc2-c2ccco2)c1` was inactive: > 76.9 µM; that for `CCCCN(CCCNC(=O)C1CCN(S(=O)(=O)N2CCOCC2)CC1)Cc1ccccc1` was inactive: > 76.9 µM.
Take `C#CCn1c(=NC(=O)CSCC(=O)N2CCOCC2)sc2ccccc21`: the Potency was inactive: > 76.9 µM.
The value for `CCOC(=O)CN1C(=O)COc2ccc(C(C)(C)C)cc21` was inactive: > 76.9 µM.
With `CCn1cc(Br)c(-c2nc3ccccc3c(=O)n2N)n1`, the Potency is inactive: > 76.9 µM.
Regarding `O=C(COc1ccccc1)Nc1cccc2nsnc12`, the Potency is inactive: > 76.9 µM.
The value for `CS/C(=N\S(=O)(=O)c1ccc(N)cc1)NS(=O)(=O)c1cccs1` was inactive: > 76.9 µM; that for `O=c1cc(-c2ccccc2)[nH]n1-c1nc2ccccc2[nH]1` was inactive: > 76.9 µM; that for `COC(=O)c1cc(OC)c(OC)cc1NC(=O)c1ccoc1C` was inactive: > 76.9 µM.
For the compound `COc1ccccc1-n1nnnc1S(=O)(=O)Cc1ccc(Cl)cc1`, the Potency was inactive: > 76.9 µM.
On to `O=C(CN1C(=O)COc2ccccc21)c1cccc(Cl)c1`, for which the Potency was inactive: > 76.9 µM.
Regarding `COc1cccc(C2C(C(=O)OC(C)C)=C(C)Nc3ncnn32)c1` (stereo unspecified), the Potency is inactive: > 76.9 µM.
The value for `COCC(C)NC(=O)C1CC(=O)N(c2ccc(C)cc2)C1` (stereo unspecified) was inactive: > 76.9 µM.
Take `O=C(NCCn1cccc1)c1cccc2ccccc12`: the Potency is inactive: > 76.9 µM.
The value for `Cn1c(=O)cc(SCC(=O)NCCCN2CCN(c3ccc(F)cc3)CC2)c2ccccc21` was inactive: > 76.9 µM; that for `Cc1ccc(S(=O)(=O)NCCC(=O)N2CCCCC2)cc1` was inactive: > 76.9 µM.
The value for `CCCCN(C)C(=O)c1coc(=O)c2ccccc12` was inactive: > 76.9 µM; that for `CCCc1cc(=O)[nH]c(SCC(=O)NC(=O)OCC)n1` was inactive: > 76.9 µM; that for `COc1ccc(-c2nn3c(-c4ccc(F)cc4)nnc3s2)cc1` was inactive: > 76.9 µM.
Then `CC(C)(C)NC(=O)CN(C(=O)c1ccc(CN2CCOCC2)o1)c1ccc2c(c1)OCCO2`, with inactive: > 76.9 µM; and `Nc1nc(CSc2nnnn2-c2ccc(F)c(Cl)c2)nc(N2CCOCC2)n1`, with inactive: > 76.9 µM.
`Cc1noc(C)c1COC(=O)CCCc1c[nH]c2ccccc12`: the Potency was inactive: > 76.9 µM.
The value for `CCCSc1nc(N)c2c3c(sc2n1)CN(C)CC3` was inactive: > 76.9 µM; that for `OCCN1CN=C(Nc2nc3ccccc3o2)NC1` was inactive: > 76.9 µM.
Turning to `CCn1c(SCC(=O)c2[nH]c(C)c(C(C)=O)c2C)nnc1-c1cccs1`, the Potency is inactive: > 76.9 µM.
As to `COc1ccc(S(=O)(=O)N(C)CC(=O)O)c2ccccc12`, the Potency was inactive: > 76.9 µM.
Then `CCOC(=O)c1sc(NC(=O)C2CCCO2)c(C(=O)OC)c1C` (stereo unspecified), with inactive: > 76.9 µM; and `C=C(C)CN(CC)c1nc(N)c(C#N)c(CC#N)c1C#N`, with inactive: > 76.9 µM; and `CC(=O)N1CCN(S(=O)(=O)c2ccc(C)cc2)C1C(C)C` (stereo unspecified), with inactive: > 76.9 µM.
As to `CN(C)c1nc(C(=O)OCCO)nc(N(C)C)n1`, the Potency is inactive: > 76.9 µM.
As to `CC1CCCCN1C(=O)C1CC(c2ccc(F)cc2)=NO1` (stereo unspecified), the Potency is inactive: > 76.9 µM.
Then `O=C(CSc1nnc(-c2cccs2)o1)OC1CCCCC1`, with inactive: > 76.9 µM; and `Cc1ccc(S(=O)(=O)NC(=O)Nc2c(C)n(C)n(-c3ccccc3)c2=O)cc1`, with inactive: > 76.9 µM; and `N#Cc1nc(-c2ccco2)oc1N1CCOCC1`, with inactive: > 76.9 µM.
The value for `CC(C)CC(OC(=O)c1cccs1)C(=O)NCc1ccco1` (stereo unspecified) was inactive: > 76.9 µM; that for `COC(=O)[C@@H](NC(=O)NC1CCCc2ccccc21)C(C)C` (stereo partly specified) was inactive: > 76.9 µM; that for `O=C(O)c1ccc(S(=O)(=O)c2ccccc2)cc1` was inactive: > 76.9 µM.
The value for `CCCn1c(=O)c2ccccc2n2c(SCCOc3ccc(C)cc3)nnc12` was inactive: > 76.9 µM; that for `CCn1c2ccc(CC(=O)O)cc2c2cc(CC(=O)O)ccc21` was inactive: > 76.9 µM; that for `Cc1ccc2nc(N3CCN(C)CC3)c(C#N)cc2c1` was inactive: > 76.9 µM.
For the compound `Cn1c(=O)c2c(nc(NCc3cccnc3)n2Cc2cccc(C(F)(F)F)c2)n(C)c1=O`, the Potency is inactive: > 76.9 µM.
In the case of `COC(=O)c1ccc(C)c(NC(=O)c2nn(C)c(=O)c3ccccc23)c1`, the Potency was inactive: > 76.9 µM.
With `COc1ccccc1NC(=O)N(Cc1ccc2c(c1)OCO2)Cc1nc2ccccc2c(=O)[nH]1`, the Potency is inactive: > 76.9 µM.
For the compound `COc1ccccc1CNC(=O)CCN1C(=O)COc2ccccc21`, the Potency is inactive: > 76.9 µM.
